# Out of some 340,000 compounds screened, about 6,900 (2%) were called active. Rule as the data show it: active = inhibition above about 30%; inactive = below that, where a call was filed. The entries are a selection whose mix differs from that of the whole data set. Entries without a call were filed so in the source.
# Molecular target: D(2) dopamine receptor (Homo sapiens) (UniProt P14416)
# Assay: HTS Assay for Allosteric Antagonists of the Human D2 Dopamine Receptor: Primary Screen for Antagonists; also: 0% is about no effect
# Settings: HEK293 TREx D2 cells, calcium flux, dopamine EC80; at 10 µM; stronger effect = higher value
# Source text: NIH Chemical Genomics Center [NCGC] NIH Molecular Libraries Probe Centers Network [MLPCN] MLPCN Grant: NS064831-01 Assay Submitter (PI): David Sibley Dopamine receptors (DARs) are involved in the etiology and/or therapy of a number of neuropsychiatric and endocrine disorders. For instance, all receptor-based antiparkinsonian drugs work via stimulating the D2 DAR subtype whereas all FDA-approved antipsychotic agents are antagonists of this receptor. […] There are three different types of allosteric modulators that we are seeking, two of which will stimulate or augment receptor signaling, allosteric agonists and potentiators, while the third, allosteric antagonists, will attenuate receptor signaling. The present primary screening assay measures compound antagonism after an EC80 addition of dopamine by tracking calcium flux in a […], inducible Hek293 Trex D2 cell line.
# Freshly passaged cells are plated in 1536 well black, clear bottom plates at a density of 4000 cells/well in 3 ul of complete media containing 1x tetracycline inducer. After an overnight incubation at 30 C in 5% CO2, cells are loaded with 2 ul of the no wash Calcium Assay Kit (ABD Bioquest) and incubated at room temperature for 30 to 90 minutes. Agonist read: A 10 cycle (1 second/cycle) baseline measurement is taken and then the FDSS online 1536 pintool delivers 23 nl of compound library (as well as dopamine controls) to the plate. The plate is measured for kinetically at 1 cycle/sec for 180 seconds. Following the 180 second read, 1 ul of an EC80 (negative modulation assay) is delivered by an onboard pipette head. Measurements are taken kinetically for an additional 180 seconds.
# UniProt P14416, sequence (P14416 whole entry, looked up): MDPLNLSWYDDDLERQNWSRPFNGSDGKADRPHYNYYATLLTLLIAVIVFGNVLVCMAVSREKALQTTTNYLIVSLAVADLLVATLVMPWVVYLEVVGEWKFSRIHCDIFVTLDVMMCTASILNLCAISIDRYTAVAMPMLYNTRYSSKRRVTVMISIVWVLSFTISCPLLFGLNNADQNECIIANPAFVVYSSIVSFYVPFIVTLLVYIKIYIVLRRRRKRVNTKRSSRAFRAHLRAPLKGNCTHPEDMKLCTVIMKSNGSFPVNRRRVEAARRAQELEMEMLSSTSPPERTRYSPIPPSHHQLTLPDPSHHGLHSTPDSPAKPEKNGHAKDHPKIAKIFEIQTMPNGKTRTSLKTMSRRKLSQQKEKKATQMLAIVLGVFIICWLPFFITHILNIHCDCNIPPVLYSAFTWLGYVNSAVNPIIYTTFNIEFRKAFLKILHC
row,Compound,inhibition
1,Cc1cc(F)ccc1NC(=O)CN(C)S(=O)(=O)c1ccc(C(=O)N2CCOCC2)s1,0.37%
2,N#Cc1c(C(F)(F)F)cc(-c2cccs2)nc1SCC(=O)Nc1ccc(F)cc1,-6.66%
3,CCOC(=O)N1CCc2c(sc(NCc3ccc(N(C)C)cc3)c2C(=O)Nc2ccc(OC)cc2)C1,-9.23%
4,CC1CCc2c(sc(NC(=O)c3ccc(Cl)cc3Cl)c2C#N)C1 (stereo unspecified),17.3%
5,COc1ccc(CNC(=O)c2cc3cc(S(=O)(=O)N4CCCCC4)ccc3n2C)c(OC)c1,7.08%
6,COc1ccc(NC(=O)CCc2c(C)nc3c(c2C)c(=O)n(C)c(=O)n3C)cc1OC,-9.12%
7,O=c1c2sc3ccccc3c2n(Cc2cccc(C(F)(F)F)c2)c(=O)n1Cc1ccccc1,-10.3%
8,Cc1c(Cl)cccc1N1C(N)=C(C#N)C(c2cc(CN3CCOCC3)cs2)C2=C1CCCC2=O (stereo unspecified),-9.99%
9,COc1ccc(NC(=O)CSc2nc(-c3cccs3)cc(C(F)(F)F)c2C#N)cc1,-0.99%
10,Cc1ccc(-n2nc(C)c3c(C(=O)NCc4ccc(F)cc4)cc(C)nc32)cc1,0.697%
11,Cc1cccc(N2CC(C)Cn3c2nc2c3c(=O)n(CC(=O)O)c(=O)n2C)c1 (stereo unspecified),-0.121%
12,OC(CN1CCCCC1)Cn1c2ccccc2c2cc(Br)ccc21 (stereo unspecified),active: 79.6%
13,COc1ccc(CCN2CC(C(=O)NCCc3cccnc3)CCC2=O)cc1 (stereo unspecified),active: 31.6%
14,c1ccc(-c2cnn3c(-c4ccccc4)c(-c4ccccc4)nc3n2)cc1,active: 39.1%
15,CSc1ccc(CCNC(=O)c2ccc(CS(=O)(=O)c3ccc(Br)cc3)o2)cc1,10.9%
16,COCCNC(=O)c1cccc(Nc2nc3ccccc3n3nnnc23)c1,6.99%
17,CCc1cccc(NC(=O)CCc2nc3cccnc3n2-c2ccccc2)c1,-5.83%
18,CCOc1cc(CNC(=O)c2ccc3c(c2)N(C)C(=O)C2CCCCN32)cc(OCC)c1OCC (stereo unspecified),-2.86%
19,O=C(Nc1ccc(F)cc1F)c1cc2c(=O)n3ccccc3nc2s1,-1.98%
20,COc1ccccc1NC(=O)c1ccc(COc2ccc(C)c(C)c2)o1,14.5%
21,Cc1cccc(N2CCN(S(=O)(=O)c3c(C)nc4scc(C)n4c3=O)CC2)c1C,6.5%
22,CCn1cc2nc(SCc3cc(C)ccc3C)n(CCc3ccccc3)c(=O)c2n1,-4.17%
23,CCCCn1c(=O)c2oc3ccccc3c2n(CC(=O)Nc2ccc(CC)cc2)c1=O,3.71%
24,CCCCn1c(=N)n(CCCOc2ccc(F)cc2)c2ccccc21,-1.51%

row,Compound,inhibition
1,CCS(=O)(=O)Nc1ccc(-c2cn3ccsc3n2)cc1,-4.42%
2,COc1ccc(-c2nc3sc(CCNC(=O)c4ccco4)c(C)n3n2)cc1,2.19%
3,Cn1cc(CN(C(=O)Nc2ccccc2)C2CCCCC2)c2ccccc21,14.2%
4,COc1cc2c(cc1OC)CN(C(=O)Nc1ccccc1)CC2,-10.9%
5,CCN1CCN(c2ccc([N+](=O)[O-])c(Sc3nc4ccccc4[nH]3)c2)CC1,active: 86.8%
6,CN(C)c1ccc(CNS(=O)(=O)c2ccc(-c3cc(C(F)(F)F)on3)s2)cc1,4.84%
7,CCc1ccc(-n2c(=O)c3c4c(sc3n(Cc3ccccc3C#N)c2=O)CCC4)cc1,-11.4%
8,COc1ccc(S(=O)(=O)NCCc2nnc3ccc(SCC(=O)Nc4ccccc4C)nn23)cc1,-12.5%
9,COCCn1nnnc1C(c1ccc(O)c(OC)c1)N1CCc2ccccc2C1 (stereo unspecified),active: 43.6%
10,COC(=O)c1c(C)oc2ccc(N(C(=O)c3ccncc3)S(=O)(=O)c3ccc(OC)cc3)cc12,-23.9%
11,O=C(Nc1cccc(C(F)(F)F)c1)c1ccc2c(c1)nnn2C1CCCC1,8.43%
12,CC(C)n1c(O)c(N=NC(=O)CNC(=O)c2cccnc2)c2ccccc21,active: 40.9%
13,CCCCc1ccc(N/C(N)=N/c2nc(C)cc(C)n2)cc1,active: 43.3%
14,COc1ccccc1C1CC(=O)NC(C)=C1C(=O)OC1CCCCCC1 (stereo unspecified),20.8%
15,COc1ccc(Nc2ncc3c(n2)CCN(Cc2ccccc2C)C3)c(OC)c1,6.31%
16,O=C(Cn1c(=O)c2cccn2c2cccnc21)NCCCN1CCN(c2ccc(F)cc2)CC1,active: 54%
17,COc1cc(/C=N/NC(=O)CC2(C)OCCCO2)ccc1OCc1ccc(Cl)cc1Cl,active: 31%
18,COc1cc(Cl)c(C)cc1Nc1nc2ccccc2c2nnc(C)n12,1.51%
19,O=C(NCc1cccnc1)c1nn(-c2ccc(Cl)cc2)nc1CO,-4.42%
20,COc1ccc(C2CC(=O)N3CN(C4CCCCC4)CSC3=C2C#N)c(OC)c1 (stereo unspecified),-12.4%
21,CCC(Oc1ccccc1-c1nnc(-c2ccccc2)o1)C(=O)Nc1ccc(C(C)=O)cc1 (stereo unspecified),2.2%
22,COC(=O)c1ccc(NC(=O)CSc2ccc(-c3sc(-c4ccccc4)nc3C)nn2)cc1,-8.35%
23,CCc1ccc(-n2c(=O)c3cccnc3n2CC(=O)NCc2ccccc2)cc1,-18.7%
24,COC(=O)C(C)Sc1ccc2nnc(CCNS(=O)(=O)c3ccc(C)cc3)n2n1 (stereo unspecified),13.3%

row,Compound,inhibition
1,Cc1ccc(C)c(NC(=O)n2ncc3cc(Cl)ccc32)c1,18.6%
2,COCCCNC(=O)Cn1cnc2sc(C)c(S(=O)(=O)N3CCC(C)CC3)c2c1=O,4.42%
3,Cc1ncc(CO)c2c1Oc1nc(-c3ccccc3Cl)nc(SCc3ccccc3F)c1C2,0.173%
4,COc1ccc(CC(=O)Nc2ccccc2C(=O)N2CCOCC2)cc1,active: 43.5%
5,COc1cccc(OC)c1C(=O)NC(=O)Nc1c(C)cccc1C,active: 32.1%
6,CC(C)NC(=O)c1ccc(Cn2c(SCC(N)=O)nc3ccccc3c2=O)cc1,12.5%
7,CCOc1ccc(C2CC(=O)Nc3nc(SCc4ccccc4C)[nH]c(=O)c32)cc1OC (stereo unspecified),-9.31%
8,Cc1ccc(CCNC(=O)c2ccc3nc(N4CCC(C)CC4)sc3c2)cc1,4.01%
9,O=c1n(Cc2ccccc2Cl)c2ccccc2c2nc(-c3ccccc3)nn12,6.93%
10,Cc1nn2c(=O)cc(COC(=O)c3ccc(NC(=O)COc4ccc(C)c(C)c4)cc3)nc2s1,-9.87%
11,O=C(CCC1CCCC1)N1CCC(N2CCN(c3ccccc3)CC2)CC1,active: 77.2%
12,CCCCNC(=O)CCCCCn1c(=O)[nH]c2ccccc2c1=O,-19%
13,CCc1ccc(NC(=O)CN2C(=O)c3cccc4cccc2c34)cc1,-7.36%
14,O=C(CCN1CCN(c2ccccc2F)CC1)c1ccc(Br)cc1,active: 34.1%
15,Cc1ccc(S(=O)(=O)c2nnn3c2nc(NCc2ccc4c(c2)OCO4)c2sccc23)cc1C,2.23%
16,COc1ccc(Br)cc1CNC(=O)c1cnc2sc(N3CCC(C)CC3)nn2c1=O,-6.15%
17,Cc1nc2ccccn2c(=O)c1NC(=O)c1ccc(F)c(F)c1,-3.07%
18,Cc1cccc(NC(=O)C2CCCN2S(=O)(=O)c2ccc3nc(-c4ccccc4)[nH]c3c2)c1 (stereo unspecified),27.4%
19,COc1cc(Cl)c(NC(=O)c2cc3ccccn3n2)c(OC)c1,-4.66%
20,Cc1ccc2c(c1)c1c(c(=O)n(-c3ccccc3)c(=O)n1CC(=O)NCC1CCCO1)n2C (stereo unspecified),6.02%
21,CCNC(=O)C1CCN(S(=O)(=O)c2ccc3c(c2)CCCN3C(C)=O)CC1,-3.54%
22,CCOc1cc(C(=O)Nc2ccc(-c3cn4cccnc4n3)cc2)cc(OCC)c1OCC,-16%
23,CCCN(CCC)c1ccc(C2N=C(N)Nc3nc4ccccc4n32)cc1 (stereo unspecified),-0.245%
24,O=C(/C=C/c1cccc([N+](=O)[O-])c1)OC1CCCCC1=O (stereo unspecified),active: 31.1%

row,Compound,inhibition
1,O=C(NCc1ccccc1)c1ccc(NC(=O)N2CC3CCCN3c3ccccc32)cc1 (stereo unspecified),-1.85%
2,Cn1c(=O)oc2cc(S(=O)(=O)CCC(=O)N3CCN(c4cccc(Cl)c4)CC3)ccc21,3.88%
3,CC(=O)c1ccc(NC(=O)c2ccc3c(c2)N(Cc2cccc(Cl)c2)C(=O)c2ccccc2S3=O)cc1 (stereo unspecified),-24.3%
4,Cc1ccccc1-c1nc(CN2CCC(C(=O)NCc3ccc(F)cc3)CC2)c(C)o1,5.32%
5,CCOC(=O)c1c(C)n(-c2ccccc2)c2ccc(OC(=O)COc3ccc(Cl)cc3)cc12,7.03%
6,CC(=O)N1CCOc2ccc(S(=O)(=O)N3CCC(C(=O)Nc4cc(C)cc(C)c4)CC3)cc21,active: 52%
7,Cc1cc(Nc2ccccc2C)n2nc(Cc3ccc(Cl)cc3)nc2n1,-0.983%
8,Cc1ccn2c(Nc3ccc4c(c3)OCCO4)c(-c3ccc(C)o3)nc2c1,-7.82%
9,O=[N+]([O-])c1ccccc1NC1CCN(Cc2ccccc2)CC1,active: 39.2%
10,Cc1ccccc1OCCSc1nc2ccc(NC(=O)c3cccc(F)c3)cc2s1,9.9%
11,CN(C)CCCNc1cc(N2CCN(C3CCCCC3)CC2)c2noc3c2c1C(=O)c1ccccc1-3,13.4%
12,COc1cc2ncc3c(-c4ccc(C)cc4)nn(-c4ccc(F)cc4F)c3c2cc1OC,8.81%
13,CCC(C)(C)NC(=O)C(c1cccn1C)N(Cc1ccc(OC)cc1)C(=O)Cn1nnc2ccccc21 (stereo unspecified),active: 30.5%
14,CC1=C(c2ccc(F)cc2)S(=O)(=O)N=C1N1CCC(C(=O)NCCc2cccc(C)c2)CC1,-5.46%
15,CCN1CCCC1CNC(=O)c1cc2c(OC)c(OC)c(OC)cc2[nH]1 (stereo unspecified),active: 82.7%
16,COc1cccc(-c2nc(CS(=O)(=O)CC(=O)NCc3cccc(Cl)c3)c(C)o2)c1,5.47%
17,Cc1ccc(CCNC(=O)C2CCCN(c3nnc(C)c4c(C)n(-c5ccccc5)nc34)C2)cc1 (stereo unspecified),-8.88%
18,Cc1c(C(=O)NCc2cccc(Br)c2)oc2ccc3c(c12)C(=O)CC(C)(C)O3,-1.45%
19,CCN(CC)CCCNC(=O)c1ccc(Cn2c(SCc3ccccc3)nc3cccnc32)cc1,3.64%
20,COc1ccc(-c2nc3sc(CCNC(=O)C(=O)Nc4cccc(NC(C)=O)c4)c(C)n3n2)cc1,-6.23%
21,Nc1nn(-c2ccccc2)nc1C(=O)OCc1ccc(Cl)cc1,1.52%
22,O=C(CSc1ncc(-c2ccccc2)n1C1CCCC1)N1CCc2ccccc21,active: 30.7%
23,O=C(CN1CCN(CCC(=O)Nc2ccccc2F)CC1)Nc1ccc(Cl)cc1,active: 129%
24,COc1c(C)cccc1C(=O)Nc1ccc(-c2nc3ccccc3s2)c(Cl)c1,6.61%

# From PubChem BioAssay AID485344 (National Center for Advancing Translational Sciences (NCATS), 2010)
